Certain results were filed several times, with different values. This is not the full list of results. There may be further records. The records of an entry are repeated measurements in other runs, samples, wells, individuals or studies. A tag in brackets gives the origin of a value. Letters count within one entry.
Target: Transitional endoplasmic reticulum ATPase (Homo sapiens) (UniProt P55072)
Test: p97 ATPase activity inhibitors, SAR follow-up, biochemical, dose response, round 3 (AID 504650)
Settings: purified p97 ATPase, Kinase-Glo luminescence
Summary of the method: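 Also added: ATP substrate, 500 µM stock; Assay system: human p97 ATPase protein; Buffer or medium: Tris pH 7.4 buffer with MgCl2, EDTA; Signal: Kinase-Glo Plus luminescence measuring residual ATP; Measure: IC50 from fit of percent remaining activity versus compound concentration; Incubation: 10 min room-temperature enzyme–compound preincubation, 30 min 37 °C ATP reaction.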

UniProt P55072, sequence (P55072 whole entry, looked up): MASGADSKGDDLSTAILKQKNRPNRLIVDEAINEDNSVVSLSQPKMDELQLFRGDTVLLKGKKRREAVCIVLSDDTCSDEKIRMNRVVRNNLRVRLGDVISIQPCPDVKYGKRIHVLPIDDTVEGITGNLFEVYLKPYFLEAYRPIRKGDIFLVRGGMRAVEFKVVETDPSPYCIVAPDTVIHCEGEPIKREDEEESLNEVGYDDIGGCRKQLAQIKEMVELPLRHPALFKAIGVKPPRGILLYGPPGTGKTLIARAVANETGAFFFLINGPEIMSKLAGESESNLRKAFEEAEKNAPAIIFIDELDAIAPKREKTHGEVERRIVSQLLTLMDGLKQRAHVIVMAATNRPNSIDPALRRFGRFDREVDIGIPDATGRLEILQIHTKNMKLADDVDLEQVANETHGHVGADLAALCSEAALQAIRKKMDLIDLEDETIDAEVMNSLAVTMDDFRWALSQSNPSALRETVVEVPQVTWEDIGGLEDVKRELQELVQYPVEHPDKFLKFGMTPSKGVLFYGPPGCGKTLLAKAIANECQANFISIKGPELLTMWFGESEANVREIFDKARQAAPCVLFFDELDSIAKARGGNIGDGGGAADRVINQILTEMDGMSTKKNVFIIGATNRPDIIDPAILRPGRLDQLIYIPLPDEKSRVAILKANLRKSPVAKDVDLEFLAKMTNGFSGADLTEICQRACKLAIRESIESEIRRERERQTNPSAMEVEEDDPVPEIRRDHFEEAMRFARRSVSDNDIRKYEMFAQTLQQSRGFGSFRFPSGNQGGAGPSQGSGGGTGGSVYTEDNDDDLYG

Compound: COc1cccc2c(NCc3ccccc3)nc(-n3c(N)nc4c(F)cccc43)nc12
- IC50: 43 nM [sample A] and 500 nM [sample B]

Source: PubChem BioAssay AID504650 (Molecular Libraries Program, Specialized Chemistry Center, …, 2011)
